Reference: PubChem BioAssay (NCI)
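Interpolation was linear, between the two tested concentrations surrounding the appropriate level; five concentrations were tested over 48 hours in 96-well plates. The concentration for full growth arrest is given as TGI.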 Certain results were filed several times, with different values. This list holds those alone. An entry can have further records. For some of these results: The tests behind the records often covered other concentration ranges, which the source does not state; some values may only mark the edge of a range. For some of these results: Values that stand side by side are repeats in other runs, samples, wells, individuals or studies. Marks in square brackets tell the records apart. The letters are not those of the source and start again with each entry.

What was measured:
Test in all cases: growth of human tumour cells (NCI), 48 h
HT29 colon = test system: HT29 colon
HL-60(TB) leukemia = test system: HL-60(TB) leukemia
M19-MEL melanoma = test system: M19-MEL melanoma
TK-10 renal = test system: TK-10 renal
HOP-92 NSCLC = test system: HOP-92 NSCLC
RXF 393 renal = test system: RXF 393 renal
SR leukemia = test system: SR leukemia
K-562 leukemia = test system: K-562 leukemia
RPMI-8226 leukemia = test system: RPMI-8226 leukemia
A549 NSCLC = test system: A549 NSCLC
NCI-H23 lung = test system: NCI-H23 lung
OVCAR-5 ovarian = test system: OVCAR-5 ovarian
HOP-62 NSCLC = test system: HOP-62 NSCLC
CAKI-1 renal = test system: CAKI-1 renal
EKVX NSCLC = test system: EKVX NSCLC
HCT-15 colon = test system: HCT-15 colon
MOLT-4 leukemia = test system: MOLT-4 leukemia
SF-295 CNS = test system: SF-295 CNS
MALME-3M melanoma = test system: MALME-3M melanoma
SK-MEL-5 melanoma = test system: SK-MEL-5 melanoma
UACC-257 melanoma = test system: UACC-257 melanoma
CCRF-CEM leukemia = test system: CCRF-CEM leukemia
UO-31 renal = test system: UO-31 renal
ACHN renal = test system: ACHN renal
NCI/ADR-RES ovarian = test system: NCI/ADR-RES ovarian

CC[n+]1c(/C=C/c2ccc(N(CCCl)CCCl)cc2)ccc2cc(Br)ccc21
TGI (HT29 colon): 12.7 µM and 1.84 mM
TGI (HL-60(TB) leukemia): 646 nM and 233 µM
TGI (M19-MEL melanoma): 3.14 µM and 513 µM
TGI (TK-10 renal): 20.4 µM and 1.32 mM
TGI (HOP-92 NSCLC): 2.99 µM and 230 µM
TGI (RXF 393 renal): 5.76 µM and 1.13 mM
TGI (SR leukemia): 3.91 µM and 4.26 mM
TGI (K-562 leukemia): 10.3 µM and 1.31 mM
TGI (RPMI-8226 leukemia): 10.9 µM and 1.39 mM
TGI (A549 NSCLC): 15.5 µM and 11.1 mM
TGI (NCI-H23 lung): 14.6 µM and 684 µM
TGI (OVCAR-5 ovarian): 16 µM and 726 µM
TGI (HOP-62 NSCLC): 8.68 µM and 2.23 mM
TGI (CAKI-1 renal): 6.31 µM and 6.49 mM
TGI (EKVX NSCLC): 16.7 µM and 17.2 mM
TGI (HCT-15 colon): 34.5 µM and 12.4 mM
TGI (MOLT-4 leukemia): 3.87 µM and 988 µM
TGI (SF-295 CNS): 8.6 µM and 3.1 mM
TGI (MALME-3M melanoma): 3.81 µM and 312 µM
TGI (SK-MEL-5 melanoma): 2.36 µM and 419 µM
TGI (UACC-257 melanoma): 2.48 µM and 267 µM
TGI (CCRF-CEM leukemia): 1.76 µM and 1.86 mM
TGI (UO-31 renal): 32 µM and 4.5 mM
TGI (ACHN renal): 12.7 µM and 3.64 mM

CN(C)CC1CCCC(CN(C)C)C1=O (stereo not drawn)
TGI (NCI/ADR-RES ovarian): 9.09 µM [sample A, 1 test] and 97.8 µM [sample B, mean of 2 tests]
TGI (HT29 colon): 2.11 µM [sample A, mean of 5 tests] and 45.3 µM [sample B, mean of 2 tests]
TGI (HCT-15 colon): 2.51 µM [sample A, mean of 6 tests] and 35.8 µM [sample B, mean of 2 tests]
TGI (UO-31 renal): 33.2 µM [sample A, mean of 7 tests] and 3.24 µM [sample B, mean of 2 tests]
